# Reference: PubChem BioAssay AID938 (National Center for Advancing Translational Sciences (NCATS), 2007)
# Where “and” joins values, the source holds several entries; their conditions need not be identical. Equal entries are not always repeated. Among all 73,000 compounds or so, about 1,800 (2.5%) were called active. Inconclusive means that the source gave no clear call. Such entries were picked first, then a sample of the others. The call rests on the fitted dose curve; in most records, active means well fitted activation curve with a large enough effect; inconclusive means small, poorly fitted or top-dose-only effect; inactive means no such curve, though single readings can be large or run the other way. No potency is given beside an inconclusive call; the fits are too rough.
# Assay: qHTS Assay for Agonists of the Thyroid Stimulating Hormone Receptor: Activators of Intracellular cAMP Concentrations in Parental HEK 293; further: nearly all actives have a fitted effect of over 55% in size; on activation: % of control where 0% means no effect
# Settings: parental HEK293 CNG cAMP sensor, membrane potential fluorescence; activation: at 57.1 µM (top of the series) unless noted
# Outline: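 Parental HEK 293 cells stably expressing a cAMP-gated CNG channel were loaded with membrane potential dye containing 100 uM RO 20-1724 for 60 min. Compound added for 30 min; depolarization read as fluorescence intensity at 590 nm.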
# Potency means the concentration at half of the fitted maximal effect; tags describe the fitted curve by direction and shape.
Compound,activation,Potency
CC(=O)OC[C@@H]1O[C@H](CCO/N=C\[C@@H](C)[C@H](OCc2ccccc2)C(C)C)C=C[C@@H]1OC(C)=O,inactive: 14.6% [at 11.4 µM],
O=C(Nc1ccc(F)cc1)c1cccc2c1C(=O)N(Cc1ccccn1)C2,,"inconclusive [activator, full curve]"
CC(=O)/C=C(\C)Nc1ccc(-c2cnc(-c3ccccc3)o2)cc1,inactive: -8.29% [at 11.4 µM],
CC(C)CCNC(=O)C1CCN(S(=O)(=O)c2ccc3c(c2)CCC(=O)N3)CC1,,active: 6.31 µM
CCCSc1nc2c(cnn2-c2ccccc2)c(=O)[nH]1,,"inconclusive [activator, single point]"
CC(=O)c1c(C)n(-c2ccccc2)c2ccc(OCC(O)CN3CCOCC3)cc12 (stereo unspecified),,active: 12.6 µM
Cc1nn(CC(=O)NCc2cccnc2)c(=O)c2ccccc12,,"inconclusive [activator, single point]"
COc1ccc2c(c1)CCc1c(-c3noc4c3CCc3cc(OC)ccc3-4)noc1-2,inactive: -2.54% [at 11.4 µM],
Cc1cccc(CNc2ncncc2-c2ccc3c(c2)OCO3)c1,,"inconclusive [activator, partial curve]"
O=C1Nc2ccccc2C(O)(C(=O)NCc2ccco2)N1c1ccc(Cl)cc1 (stereo unspecified),,"inconclusive [activator, single point]"
CCCCCC(=O)Nc1cc(N(C)C)nc2ccccc12,,"inconclusive [activator, partial curve]"
CCn1nnc(NC(=O)c2ccc(C(C)(C)C)cc2)n1,inactive: 11.4%,
CCC(C)(C)n1nnnc1C(c1ccc2ncccc2c1)N1CCN(c2nc3ccccc3s2)CC1 (stereo unspecified),,"inconclusive [activator, partial curve]"
COC(=O)Cc1nnc(NC(=O)c2ccccc2)s1,inactive: 9.85%,
COC(=O)Cn1c(C(=O)N2CCCC2)cc2c1C[C@H]1CN(C(=O)c3ccccc3)[C@@](Cc3ccc(F)cc3)(C(=O)OC)[C@@H]21,,"inconclusive [activator, partial curve]"
Fc1ccccc1CSc1ncnc2c1oc1ccccc12,,"inconclusive [activator, single point]"
N#CCc1ccc(NS(=O)(=O)c2ccc(N3CCCC3=O)cc2)cc1,,"inconclusive [activator, single point]"
O=C(O)C1CC=CCC1C(=O)Nc1ccccc1Cl (stereo unspecified),,"inconclusive [activator, single point]"
O=C(c1ccncc1)N1CCC2(CCN(Cc3cc(C(F)(F)F)cc(C(F)(F)F)c3)CC2)CC1,,"inconclusive [activator, single point]"
COc1nc(N2CCCC2)nc(-n2cc(-c3ccccc3)nn2)n1,,"inconclusive [activator, single point]"
O=C(CSc1nnc(-c2ccccc2)o1)c1ccc2c(c1)OCCO2,,"inconclusive [activator, partial curve]"
CCOC(=O)C1CCCN(C(=O)c2ccccc2Oc2ccccc2)C1 (stereo unspecified),,"inconclusive [activator, partial curve]"
CC(C)(O)C#Cc1ccc(C(=O)N2CCN(C(=O)c3ccco3)CC2)cc1,,"inconclusive [activator, single point]"
CCOc1cc(-c2nc(-c3ccccc3OC)no2)cc(OCC)c1OCC,inactive: 29.4%,

Compound,activation,Potency
COc1ccc(-c2nc(C#N)c(N3CCN(c4ccccc4)CC3)o2)cc1,inactive: 11.8%,
Oc1ccccc1-c1cc(-c2ccccc2Cl)[nH]n1,inactive: -9.03%,
Cn1c(CNc2ccccn2)c(C#N)c2ccccc21,inactive: -0.214%,
COc1ccc(NC(=O)CSc2nc3c(c(=O)[nH]2)CCC3)cc1OC,,"inconclusive [activator, single point]"
COC(=O)CC[C@@H](C)[C@H]1CC[C@H]2[C@H]3CC[C@H]4C[C@@H]5CC[C@@]4(C)C3(O5)[C@@H](Br)[C@@H](Br)[C@@]12C,inactive: 4.87% [at 11.4 µM],
Cc1nc2nc(SCC(=O)NCc3ccco3)nn2c(C)c1Cc1c(F)cccc1Cl,,"inconclusive [activator, partial curve]"
Cc1cccc(Nc2nc(N)nc(CN3CCN(c4ccccc4)CC3)n2)c1,inactive: 16.6%,
CC(=O)OC1CC(C)N(C(=O)c2ccccc2)c2ccc(C)cc21 (stereo unspecified),,"inconclusive [activator, full curve, poor fit]"
COc1cc(-c2nn3c(-c4cccc(C)c4)nnc3s2)cc(OC)c1OC,inactive: 19.4%,
c1ccc(-c2ccccc2-c2nc(-c3cccnc3)no2)cc1,,"inconclusive [activator, single point]"
CN(C1CCCCC1)S(=O)(=O)c1ccc(NC(=O)c2ccco2)cc1,,"inconclusive [activator, single point]"
C=CCn1c(CC(=O)OC)csc1=Nc1ccc(C(C)=O)cc1,,"inconclusive [activator, single point]"
c1cn2cc(-c3ccc4c(c3)OCO4)nc2s1,inactive: 6.46%,
c1ccc2c(c1)Cn1nnnc1-2,inactive: 2.71%,
COc1ccc(CC(=O)Nc2cc(C)c3c(=O)oc4ccccc4c3n2)cc1,,"inconclusive [activator, single point]"
Cc1nnc(SCC(=O)c2c(N)n(C)c(=O)n(C)c2=O)[nH]c1=O,inactive: 13%,
COC(=O)c1ccc(NC(=O)C2CCN(S(C)(=O)=O)CC2)cc1,,"inconclusive [activator, single point]"
CCOCCOc1nc2c(c(=O)n(C)c(=O)n2C)n1CCc1ccccc1,,"inconclusive [activator, partial curve]"
O=C(Nc1ccccc1)N1CCN(c2nc3ccccc3s2)CC1,,"inconclusive [activator, single point]"
Cc1ccc2oc(=O)c3cnn(CC(=O)NC4CCN(Cc5ccccc5)CC4)c3c2c1,,"inconclusive [activator, single point]"
COc1ccccc1-c1nccc(NCc2ccccc2)n1,,"inconclusive [activator, full curve]"
O=C(Cc1cccs1)N1CCCC(c2nc3c(nnn3Cc3ccccc3Cl)c(=O)[nH]2)C1 (stereo unspecified),,"inconclusive [activator, single point]"
Cn1c(=N)n(CC(=O)C(C)(C)C)c2ccccc21,inactive: 28.8%,
COc1ccc(OC)c(N(CC(=O)N2CCN(c3cc(Cl)ccc3C)CC2)S(C)(=O)=O)c1,,"inconclusive [activator, partial curve]"

Compound,activation,Potency
O=C(NCc1ccccc1)c1ccc(-c2ccccc2F)o1,inactive: 14%,
CCOC(=O)c1c(NC(=O)COC)sc2c1CCCC2,,"inconclusive [activator, single point]"
Cc1cccc(NC(=O)c2ccccc2O)c1C,,"inconclusive [activator, single point]"
Cc1cc(=O)[nH]c(SCC(=O)Nc2cccc(C(F)(F)F)c2)n1,,"inconclusive [activator, partial curve]"
CCOC(=O)c1[nH]c(C)c(C(=O)OCCN2C(=O)c3ccccc3C2=O)c1C,inactive: -9.66%,
Cc1nc2cnc(Oc3cccc(Cl)c3)nc2n(CCC#N)c1=O,,"inconclusive [activator, single point]"
CCOc1ccccc1NC(=O)N1CCCC1C(=O)Nc1nnc(CC)s1 (stereo unspecified),inactive: 5.83%,
Cc1nc2sc(C(c3cccs3)N3CCN(c4cccc(Cl)c4)CC3)c(O)n2n1 (stereo unspecified),,"inconclusive [activator, single point]"
CC(=O)OCC1OC(C#Cc2ccccc2)C=CC1OC(C)=O (stereo unspecified),inactive: 6.02% [at 11.4 µM] and inactive: 0.129% [at 11.4 µM],
Cc1nc(NCCc2cnc[nH]2)c2oc3ccccc3c2n1,,"inconclusive [activator, full curve]"
O=C(NCc1ccccn1)[C@H]1C[C@@H]1[C@H](NP(=O)(c1ccccc1)c1ccccc1)c1ccccc1,inactive: 27%,
COc1ncc2nc(-c3ccc(Cl)cc3)c(=O)n(CCc3ccccc3)c2n1,inactive: -2.28%,
CCOC(=O)N1CCN(C(=O)CSc2nc(-c3cccc(C)c3)ns2)CC1,,"inconclusive [activator, single point]"
OC[C@@H]1O[C@H](O)[C@@H](Cl)[C@H](O)[C@@H]1O,inactive: -2.31%,
Cc1cccn2c(=O)c3cc(C(=O)NCCCN4CCOCC4)n(C)c3nc12,inactive: 2.31%,
N#Cc1nc(-c2ccc(OCc3ccc(Cl)cc3)cc2)oc1NCc1cccnc1,inactive: 7.23%,
c1ccc(-c2cc(-c3cc(-c4ccccn4)[nH]n3)n[nH]2)nc1,inactive: -6.25% [at 11.4 µM],
CN(C)CC/C=C1\c2ccccc2COc2ccccc21,,"inconclusive [activator, full curve, poor fit]"
CC1CC(C)CN(S(=O)(=O)c2ccc(NC(=O)C3COc4ccccc4O3)cc2)C1 (stereo unspecified),,"inconclusive [activator, full curve]"
OC12CCCCC1C(c1ccc3c(c1)OCO3)N(Cc1ccc(F)cc1)CC2 (stereo unspecified),,"inconclusive [activator, partial curve]"
Cc1cccc(CC(=O)Nc2c3c(nn2-c2cccc(Cl)c2)CS(=O)C3)c1 (stereo unspecified),,active: 10 µM
CCc1c(C)sc(NC(=O)c2cccs2)c1C(=O)OC(C)C,inactive: 6.42%,
CCc1n[nH]c2c1/C(=N\O)CC(C)(C)C2,,"inconclusive [activator, single point]"
